Experimental data taken from PubChem BioAssay AID488969 (Vanderbilt High Throughput Screening Facility, 2010).
Over roughly 110,000 compounds, “z-score” has its median near -0.1; the highest 2% begin near 2. The list shows a part of the results. Activity calls are given as the source filed them.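 How the source made its calls: active means z-score in the third read window above 3 or below -3; inactive means the rest.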

The molecules below were run against Metabotropic glutamate receptor 8 (Rattus norvegicus) (UniProt P70579) (assay: rat mGluR8 modulators via GIRK flux, primary screen, cell-based, thallium flux, HTS (AID 488969)). Details: HEK293 rat mGluR8, GIRK (G protein-gated inwardly rectifying potassium channel) thallium flux, FluoZin2; at 10 µM; stronger effect = higher value; submaximal glutamate (EC20) added with thallium.
Sequence of UniProt P70579 (P70579 whole entry, looked up): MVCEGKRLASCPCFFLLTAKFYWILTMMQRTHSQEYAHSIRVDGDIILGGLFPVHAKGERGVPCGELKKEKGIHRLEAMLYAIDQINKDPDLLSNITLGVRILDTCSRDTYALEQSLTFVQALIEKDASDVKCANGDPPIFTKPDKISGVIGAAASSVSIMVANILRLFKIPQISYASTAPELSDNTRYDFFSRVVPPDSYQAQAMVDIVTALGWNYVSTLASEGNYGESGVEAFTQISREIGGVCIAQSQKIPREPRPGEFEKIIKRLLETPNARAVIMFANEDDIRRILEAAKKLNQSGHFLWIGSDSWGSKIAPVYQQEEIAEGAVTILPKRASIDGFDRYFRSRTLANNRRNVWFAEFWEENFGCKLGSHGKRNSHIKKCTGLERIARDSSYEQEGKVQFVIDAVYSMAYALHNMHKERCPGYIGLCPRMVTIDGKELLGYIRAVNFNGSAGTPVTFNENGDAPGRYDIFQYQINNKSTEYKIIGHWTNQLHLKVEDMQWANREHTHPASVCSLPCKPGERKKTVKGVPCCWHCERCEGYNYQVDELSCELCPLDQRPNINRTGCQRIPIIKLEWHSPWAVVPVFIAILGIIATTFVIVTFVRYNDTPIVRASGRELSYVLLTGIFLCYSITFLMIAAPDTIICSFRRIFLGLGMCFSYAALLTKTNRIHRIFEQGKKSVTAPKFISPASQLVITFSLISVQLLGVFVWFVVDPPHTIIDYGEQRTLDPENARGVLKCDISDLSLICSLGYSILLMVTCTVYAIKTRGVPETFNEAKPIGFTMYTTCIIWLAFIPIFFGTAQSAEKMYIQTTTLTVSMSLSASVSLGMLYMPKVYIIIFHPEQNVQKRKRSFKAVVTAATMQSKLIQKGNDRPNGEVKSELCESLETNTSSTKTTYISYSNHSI

Point of comparison: `COc1ccc(N(C)C(=S)Oc2ccc(C(=O)Nc3ccccc3)cc2)cc1`, z-score -0.0142. Against it:
- CN(/N=C/c1cccs1)c1cc(=O)n(C)c(=O)[nH]1 — lower, -0.167
- CC1(C)Cc2c(c(N3CCCC3)[nH]c(=S)c2C#N)CO1 — lower, -0.368
- CCN(CC)S(=O)(=O)c1ccc(/C=C/C(=O)Nc2cccc(F)c2)cc1 — lower, -0.186
- CCOC(=O)c1c(C)c(-c2ccccc2)n(CC(=O)NCCC(C)C)c1C — lower, -0.264
- O=C(NC1CCCCC1)N(Cc1ccc(F)cc1)Cc1nc2ccccc2c(=O)[nH]1 — lower, -0.385
- CC1CCCC(NC(=O)CSc2ncccc2C(=O)O)C1C (stereo not drawn) — higher, 0.422
- Cc1nn(Cc2ccc(Cl)cc2Cl)c(C)c1NC(=O)c1sc2ccccc2c1Cl — higher, 0.1
- Nc1ccccc1N1CCN(C(=O)c2ccccc2)CC1 — higher, 1.12
- Cc1ccc(O)c(-c2cc(C(=O)NCc3ccncc3)[nH]n2)c1 — lower, -1.24
- Cc1ccc(C)c(NC(=O)c2ccc[n+](Cc3ccc([N+](=O)[O-])cc3)c2)c1 — higher, 0.037
- COc1ccccc1NS(=O)(=O)c1cccc(NC(=O)Cc2cccs2)c1 — higher, 1
- C=CCN(N=Nc1cccc([N+](=O)[O-])c1)c1cccc([N+](=O)[O-])c1 — lower, -0.186
- Cc1ccc(C)c(CSc2nnc([C@@H](N)C(C)C)o2)c1 — higher, 0.564
- CCOc1ccc(CCNC(=O)CSc2nn(-c3ccc(C)c(Cl)c3)c(=S)s2)cc1OCC — lower, -2.23
- O=C(Nc1ccccc1)c1cccc(N2C(=O)CCC2=O)c1 — lower, -0.0312
- COc1cccc(CNc2ccc(S(=O)(=O)Nc3nccs3)cc2)c1O — higher, 0.255
- Cc1cc(NC(=O)CSc2nccn2-c2ccc(F)cc2)no1 — lower, -0.0255
- CCCCCOC(=O)C1=C(C)Nc2nnnn2C1c1ccc(OC)c(OC)c1OC (stereo not drawn) — lower, -0.249
- O=C(NC1CC2CCC1C2)C1COc2ccccc2O1 (stereo not drawn) — lower, -0.23
- CCCc1cc(NCC2CCCO2)n2c(nc3ccccc32)c1C#N (stereo not drawn) — lower, -1.08
- Cc1cc(OC(C)C)nc(NCc2ccccc2)n1 — higher, 0.122
- O=C(c1ccco1)N1CCN(Cc2ccccc2C(F)(F)F)CC1 — higher, 0.0757
- COc1ccc(OCCCC(=O)Nc2nncs2)cc1 — higher, 0.126
- CCCC/C(C)=N/NC(=O)c1cn(-c2ccccc2)nc1-c1ccccc1 — higher, 0.374
- O=C(Nc1cccc2ncccc12)c1ccc(-c2ccc(Br)cc2)o1 — lower, -0.163
- Cc1cc(C)c(C)c(OCC(=O)N2CCCCCC2)c1 — lower, -0.279
- CCN(CC)C(=O)C1CCC(C)(C(=O)O)C1(C)C (stereo not drawn) — lower, -0.15
- O=C(Cc1cn2ccsc2n1)Nc1nc2c(s1)CCCC2 — higher, 0.758
- COc1ccc(S(=O)(=O)N2CCOCC2)cc1N=Nc1sc(N)nc1-c1ccccc1 — higher, -0.00831
- O=S(=O)(c1ccc(Cl)cc1)N1CCC(n2cnc3cc(C(F)(F)F)ccc32)CC1 — lower, -0.234
- O=S(=O)(NC1CCCC1)c1ccc(Br)s1 — lower, -0.0206
- N#CCCn1c(SCC(=O)NCc2ccco2)nc2ccccc21 — higher, 0.191
- CCCn1c(CCc2ccccc2)nnc1SCC(=O)N1CCCC1 — higher, 0.269
- O=C(Nc1ccc([N+](=O)[O-])cc1Br)c1cccnc1 — higher, 0.0191
- O=[N+]([O-])c1cn(Cc2ccccc2)cn1 — lower, -0.255
- CCOc1ccc(-c2nn[nH]n2)cc1 — lower, -0.269
- CCN(CC)C(=O)c1ccc(S(=O)(=O)NCc2cccnc2)cc1 — lower, -0.362
- O=C(Nc1cccc(C(=O)N2CCCC2)c1)c1ccccc1Cl — lower, -0.0275
- S=C(NCc1ccccc1)NCc1ccc2c(c1)OCO2 — higher, 1.86
- Cc1ccccc1N1CCN(C(=S)c2ccccc2)CC1 — lower, -0.0651
- CCN(C(=O)c1cc2ccccc2oc1=O)c1cccc(C)c1 — higher, 0.00276
- CC(C)(C)C(=O)Nc1nnc(SCC(=O)Nc2ccc3c(c2)OCO3)s1 — lower, -0.149
- Cc1ccccc1[C@@H]1C(C#N)=C(N)S[C@H]1C(=O)c1ccccc1 — higher, -0.0123
- FC(F)C(F)(F)C1=CC(c2cccs2)=NCCN1 — higher, 0.987
- CC1CCC(Nc2nnnn2-c2ccccc2)CC1 (stereo not drawn) — lower, -0.066
- COc1cc(CCC(=O)Nc2cc(Cl)ccc2N2CCN(C)CC2)cc(OC)c1OC — lower, -0.754
- Cc1ccc(NC(=S)NCC(C)C)cc1 — lower, -0.269
- Cc1c(C(=O)N2CCCC2)sc(NC(=O)c2cccs2)c1C#N — lower, -0.577
- Clc1ccc(CSc2cc3c(nn2)-c2ccccc2CC3)cc1 — lower, -0.16
- CCC(C)NC(=O)c1ccc(CS(=O)(=O)Cc2ccc(Cl)cc2)o1 (stereo not drawn) — higher, 0.00651
- O=C(Cn1cnc2c(cnn2-c2ccc(F)cc2)c1=O)N1CCN(c2ccccc2F)CC1 — lower, -0.0382
- CCCCN1C=C(C(=O)OC)C(c2ccccc2C(F)(F)F)C(C(=O)OC)=C1 — lower, -0.0636
- C=CCN=c1scc(-c2ccccc2)n1/N=C/c1ccccn1 — lower, -1.65
- CCCCNC(=O)/C(C#N)=C/c1ccc(-c2ccc(S(=O)(=O)N3CCOCC3)cc2)o1 — higher, 0.164
- O=C1NC(c2cn(-c3ccccc3)nc2-c2cccs2)C(C(=O)c2cccnc2)C(O)(C(F)(F)F)N1 (stereo not drawn) — lower, -0.106
- Cn1c(CN2CCOCC2)nnc1SCC(N)=O — higher, 0.0469
- CCN(CCCNC(=O)Cn1ncc2c(=O)oc3ccccc3c21)c1cccc(C)c1 — lower, -0.306
- O=C1CN(c2ccccc2F)C(=O)CN1c1ccccc1F — lower, -0.0359
- COc1ccc(C(=O)CN(Cc2ccccc2)C2=NCCS2)cc1 — higher, 0.156
- CCCN1C(=O)/C(=C/c2ccc(C)o2)SC1=Nc1ccc(OCC)cc1 — lower, -0.0168
- O=c1c(-c2ccc3c(c2)OCCO3)c(C(F)(F)F)oc2cc(O)cc(O)c12 — lower, -0.788
- O=C(CCS(=O)(=O)c1ccc(Cl)cc1)N1CCN(c2ccccc2F)CC1 — higher, 0.26
- COc1ccc(NC(=O)c2cccnc2Cl)c(S(=O)(=O)N2CCOCC2)c1 — higher, 0.247
- Cc1cc(C)n(CCC(=O)N/N=C/c2ccccc2O)n1 — higher, 0.119
- Oc1c(Br)cc(C2N=C(c3ccccc3Cl)NO2)cc1Br (stereo not drawn) — lower, -0.268
- CCN(CC)C(=O)CSc1nnc(-c2ccccc2)c(-c2ccccc2)n1 — lower, -0.489
- CCN1CCc2nc(NC(=O)Cc3ccc4c(c3)OCCO4)sc2C1 — higher, 0.109
- CC(=O)NC(c1ccccc1)c1nc2ccccc2[nH]1 (stereo not drawn) — higher, 0.479
- CCCC(C)C(=O)N(Cc1ccccc1)c1ccccn1 (stereo not drawn) — higher, 0.0978
- CCCCC(O)(CCCC)C(=O)NN(C(=O)CCl)c1ccccc1 — lower, -0.259
- CC(C)(C)c1ccc(OC(=O)CN2C(=O)C3C4CCC(C4)C3C2=O)cc1 (stereo not drawn) — lower, -0.113
- CC(C)C(NC(=O)c1ccc2c(c1)OCO2)C(=O)N/N=C\c1ccco1 (stereo not drawn) — higher, -0.000464
- NC(=O)CSc1nc2scc(-c3ccc(Cl)cc3)c2c(=O)n1Cc1ccccc1 — lower, -0.0513
- CCCCn1ccnc1C(=O)c1ccc(S(=O)(=O)N(CCOC)CCOC)cc1 — higher, 1.36
- CCn1c(CCNC(=O)c2ccc(Cl)c(Cl)c2)nnc1SCCOc1ccc(OC)cc1 — lower, -0.213
- Cc1cc(O)c(-c2cc(C(=O)Nc3ccc(S(=O)(=O)N4CCOCC4)cc3)[nH]n2)cc1C — lower, -0.196
- CCN(CC)S(=O)(=O)c1ccc(NC(=S)NC(=O)CC(C)C)cc1 — lower, -0.282
- CCCCSc1nc(SCC(=O)NCc2ccco2)c2c3c(sc2n1)COC(C)(CC)C3 (stereo not drawn) — lower, -0.0456
- Cc1cc2cc(CCNC(=O)c3ccc(S(=O)(=O)N4CCOCC4)cc3)c(=O)[nH]c2cc1C — lower, -0.854
- O=C1C=C(NCc2ccco2)CCC1 — higher, 2
- CC(C)C(=O)NC(NCC1CCCO1)C(Cl)(Cl)Cl (stereo not drawn) — lower, -0.0356
- CC1=NC(=O)C(N=Nc2cccc(O)c2)N1c1ccccc1 (stereo not drawn) — lower, -0.139
- Cc1ccc(Cn2nc(-c3ccccc3)nc2-c2ccccc2)cc1 — higher, 0.0387
- CN(CC(=O)Nc1ccccc1Cl)C(=O)CSc1ncc(C(F)(F)F)cc1Cl — lower, -0.0158
- CC(C)NC(=O)c1cc2cc([N+](=O)[O-])ccc2s1 — lower, -0.0773
- COC(=O)Cn1c(=O)c2c(nc(Br)n2Cc2ccccc2Cl)n(C)c1=O — lower, -0.417
- COc1ccc(OCc2nc3c4c(ncn3n2)-c2ccccc2CC42CCCC2)cc1 — lower, -0.0939
- CC(C)N(CCNS(=O)(=O)c1ccc(Cl)cc1)C(C)C — lower, -0.192
- Clc1ccc(/C=N/Nc2nn[nH]n2)cc1 — lower, -1.27
- CCCCn1c(O)c(N=Nc2ccccn2)c2ccccc21 — higher, 2.97
- Cc1cc2c(c(N3CCOCC3)n1)C(=O)OC2 — lower, -0.0495
- CC(C)(O)c1cn(-c2nonc2N)nn1 — higher, 0.304
- CCCCn1nnc(NC(=O)COc2ccc(Cl)c(C)c2)n1 — higher, 0.0561
- COc1ccc(C(=O)NC(=S)Nc2ccccc2N2CCN(S(C)(=O)=O)CC2)cc1OC — higher, 0.464
- Cc1cc(C)nc(N2CCC(C(=O)Nc3ccc4c(c3)CCC4)CC2)n1 — lower, -0.308
- COc1cccc(CN2C(=O)CCC2(C)C(=O)NC2CCCC2)c1 (stereo not drawn) — lower, -0.0357
- O=C(COc1ccccc1)NCC1CCCO1 (stereo not drawn) — higher, 0.0828
- C=CCNC(=O)/C(C#N)=C/c1c(N(Cc2ccccc2)Cc2ccccc2)nc2ccccn2c1=O — higher, -0.014
- C=CCn1c(Sc2nncn2C)nc2c1c(=O)[nH]c(=O)n2C — higher, 0.436
- O=C(COC(=O)c1ccccc1NS(=O)(=O)c1cccs1)NCC12CC3CC(CC(C3)C1)C2 — lower, -0.35
- O=C(O)CSc1nnnn1-c1ccccc1 — lower, -0.0304
- CCOC(=O)N/N=C(C)/C=C/c1ccco1 — higher, 0.31
- CCNc1cc(Cl)nc(SC)n1 — lower, -0.339
- O=C(Nc1ccccc1N1CCCC1)c1cccnc1Cl — higher, 0.34
- O=C(NN1CCOCC1)C12CC3CC(CC(C3)C1)C2 — lower, -0.0267
- C=CCn1c(COc2cccc3cccnc23)nnc1SCC(=O)O — higher, 0.239
- C=CCNC(=O)/C(C#N)=C/c1ccccc1[N+](=O)[O-] — lower, -0.384
- Cc1nc(/N=C\N(C)C)sc1C(=O)Nc1ccccc1 — higher, -0.0131
- CN(C)S(=O)(=O)c1cccc(N=C2NN=C(c3ccccc3)CS2)c1 — lower, -0.38
- CCC(=O)Nc1ccccc1C(=O)OCC(=O)c1ccc2ccccc2c1 — lower, -0.32
- O=C(CN1CCN(c2ccc(F)cc2)CC1)Nc1cccc(C(F)(F)F)c1 — lower, -0.781

With `Cc1ccc(OCC(=O)N/N=C\c2ccc(-c3cccc(C(=O)O)c3)o2)c(C)c1` the z-score was active: 3.24.
